In PubChem BioAssay AID1745845 (National Center for Advancing Translational Sciences (NCATS), 2022):
The campaign covered roughly 360,000 compounds. About 2,600 (0.72%) were called active. The shares of active, inactive and inconclusive entries below differ from those in the screen. Calls follow the shape of the dose curve; as a rule, active = well fitted inhibition curve with a large enough effect; inconclusive = small, poorly fitted or top-dose-only effect; inactive = no such curve, though single readings can be large or run the other way. Potencies beside an inconclusive call are fits to weak or partial responses and may not hold up.

Assay: Primary qHTS for Inhibitors of ATXN expression; also: nearly all actives have a fitted effect of over 55% in size
Conditions: HEK-293 ATXN2-luciferase reporter, luminescence, 24 h; activity change, negative = inhibition: at 57 µM (top of the series)
Method in brief: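 ATXN2-luciferase reporter cells (luciferase flanked by upstream and downstream ATXN2 gene portions) were treated 24 h at 37 °C with compounds at up to 57 uM. SteadyGlo luminescence gave expression; GF-AFC fluorescence gave viability.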
% is scaled to controls: 0 for no effect and ±100 for the full control effect; potency is read from the fitted curve at half-maximal effect; tags tell the direction and shape of the fitted curve.

| SMILES | Potency | activity change, negative = inhibition |
| --- | --- | --- |
| CCOC(=O)c1ccc(NC(=O)C2CCCN(c3ncnc4onc(C)c34)C2)cc1 (stereo unspecified) | inconclusive: 22.4 µM [inhibitor, partial curve, poor fit] | – |
| Cc1cc2c3c(c1)C1(SCC(=O)N1c1ccc(F)cc1)C(=O)N3C(C)(C)CC2C (stereo unspecified) | inconclusive: 28.2 µM [inhibitor, single point] | – |
| O=C(COc1ccc(Cl)cc1)NNC(=O)c1ccccn1 | inconclusive: 35.5 µM [inhibitor, single point] | – |
| Cc1cccc(COCC(Cc2ccccc2)N2CCN(C(=O)c3cc(Cl)cc(Cl)c3)CCC2=O)c1 (stereo unspecified) | inconclusive: 39.8 µM [inhibitor, single point] | – |
| O=C(C[C@H]1C[C@H](C(=O)N2CCOCC2)[C@@]2(CCC3CCCC3)c3[nH]c4cc(-c5ccco5)ccc4c3CCN2C1=O)NCc1ccco1 | inconclusive: 39.8 µM [inhibitor, single point] | – |
| O=C(N/N=C(\c1ccccc1)c1ccccn1)c1ccccc1Cl | active: 22.4 µM | – |
| O=S(=O)(c1ccc(S(=O)(=O)N(Cc2ccccc2)Cc2ccco2)cc1)N1CCCC1 | inconclusive: 3.55 µM [inhibitor, partial curve, poor fit] | – |
| CCCc1nc2ccc(C)cn2c1Cc1ccccc1C(F)(F)F | inconclusive: 39.8 µM [inhibitor, single point] | – |
| c1ccc2c(Oc3nc(Nc4ccc(N5CCOCC5)cc4)c4ncn(C5CCCCC5)c4n3)cccc2c1 | – | inactive: -16.5% |
| CN(C)c1ccc2c(=O)cc[nH]c2c1 | – | inactive: 9.67% |
| C=CCn1c(=O)n([C@@H]2O[C@H](CO)[C@@H](O)[C@H]2O)c2nc(N)[nH]c(=O)c21 | – | inactive: -2.94% |
| CCCCNc1c(-c2ccc(OC)c(Sc3ccc(OC)cc3)c2)nc2ccccn12 | inconclusive: 39.8 µM [inhibitor, single point] | – |
| CC(C)C[C@H]1CN([C@@H](CC(C)C)CN2CCC[C@H]2CN2C(=O)C(=O)NC[C@@H]2Cc2ccc(O)cc2)C(=O)C(=O)N1CC1CCCCCC1 | inconclusive: 39.8 µM [inhibitor, single point] | – |
| CCOC(=O)c1cccc(OCC(O)CNCCOc2ccccc2F)c1 (stereo unspecified) | – | inactive: -20.2% |
| CCc1ccc(C(O)c2ncc(-c3cccc(C(F)(F)F)c3)[nH]2)cc1 (stereo unspecified) | inconclusive: 28.2 µM [inhibitor, single point] | – |
| Clc1ccc(SCCCCN2CCNCC2)cc1 | – | inactive: -9.49% |
| CCCCC1CC2=C(C(=O)OC(C)(C)O2)C(c2ccc3ccccc3c2)O1 (stereo unspecified) | inconclusive: 39.8 µM [inhibitor, partial curve, poor fit] | – |
| COc1cc(NC(=O)c2ccc(-c3ccc(Cl)cc3)o2)cc(OC)c1 | inconclusive: 43.2 µM [inhibitor, single point] | – |
| O=C(NCCCSc1ccccc1)c1cccnc1 | – | inactive: -4.06% |
| O=C(Nc1cccc(C(F)(F)F)c1)C1CCN(S(=O)(=O)c2ccc(N3CCCC3=O)cc2)CC1 | inconclusive: 2.82 µM [inhibitor, full curve] | – |
| COC(=O)c1ccc(NC(=O)N2CCN(c3nnc(C)c4c(C)n(-c5ccccc5)nc34)CC2)cc1 | – | inactive: 3.68% |

| SMILES | Potency | activity change, negative = inhibition |
| --- | --- | --- |
| CS(=O)(=O)c1ccc2nnn(OCC(=O)Nc3ccc(Br)cc3Br)c2c1 | – | inactive: -1.12% |
| OC1(c2ccc(OC(F)F)cc2)CSC(=Nc2cccnc2)N1Cc1ccco1 (stereo unspecified) | inconclusive: 31.6 µM [inhibitor, single point] | – |
| FC(F)(F)c1ccc(-n2cnc3ccccc32)nc1 | – | inactive: 45.2% |
| C[C@@H]1CCCCO[C@H](CN(C)S(=O)(=O)c2cccs2)[C@H](C)CN([C@@H](C)CO)C(=O)c2cc(NC(=O)NC3CCCCC3)ccc2O1 | inconclusive: 25.1 µM [inhibitor, partial curve, poor fit] | – |
| C[C@@H]1CN([C@H](C)CO)S(=O)(=O)c2ccc(C#CC3CCCC3)cc2O[C@H]1CN(C)C(=O)Cc1ccccc1 | inconclusive: 31.6 µM [inhibitor, single point] | – |
| COc1cc(CNc2ccc3[nH]c(=O)[nH]c3c2)cc(Br)c1OCc1ccccc1F | inconclusive: 39.8 µM [inhibitor, single point] | – |
| CC(=O)Nc1ccc(C(=O)Nc2nc(-c3ccccn3)cs2)cc1 | – | inactive: -9.11% |
| COc1cccc(NC(=O)N(Cc2cn(C)c3ccccc23)C2CCCCCC2)c1 | inconclusive: 39.8 µM [inhibitor, single point] | – |
| CN1CC(c2ccccn2)C2(SC(=S)N(Cc3ccccc3)C2=O)C12C(=O)Nc1ccccc12 (stereo unspecified) | inconclusive: 22.4 µM [inhibitor, single point] | – |
| CC1CN(S(=O)(=O)c2ccc(C(=O)Nc3nc(-c4cc5ccccc5o4)cs3)cc2)CC(C)O1 (stereo unspecified) | inconclusive: 0.891 µM [inhibitor, partial curve, poor fit] | – |
| N=c1ccn(Cc2ccc(Cl)c(Cl)c2)cc1 | inconclusive: 22.4 µM [inhibitor, partial curve] | – |
| COc1cc(C(=O)OCCc2cc3ccccc3c(=O)o2)cc(OC)c1OC | inconclusive: 17.8 µM [inhibitor, partial curve, poor fit] | – |
| OC(c1ccc(Cl)cc1)c1ncc(-c2cccc(C(F)(F)F)c2)[nH]1 (stereo unspecified) | inconclusive: 35.5 µM [inhibitor, single point] | – |
| CC(C)Oc1ccc(CN2CCC2(C)C(=O)Nc2cnc3ccccc3c2)cc1 (stereo unspecified) | inconclusive: 39.8 µM [inhibitor, single point] | – |
| Cc1c(Cl)cccc1-n1nc(C)c2c(C)cc(=O)n(CC(=O)N3CCCc4ccccc43)c21 | inconclusive: 39.8 µM [inhibitor, single point] | – |
| CCOC(=O)c1ccc(-c2ccc(/C=N/NC(=O)CN(c3ccccc3Cl)S(C)(=O)=O)o2)cc1 | inconclusive: 39.8 µM [inhibitor, single point] | – |
| O[C@@H]1CN(Cc2cccs2)[C@@H](c2ccc(Cl)cc2)C[C@H]1n1cc(C2CC2)nn1 | – | inactive: -14.8% |
| CC(C)Oc1cccc(C(=O)C2CCCN(Cc3cccn3-c3ccccn3)C2)c1 (stereo unspecified) | – | inactive: -20% [at 11.3 µM] |
| C=CCNc1nc(NCCOC)c2sc(-c3ccccc3)cc2n1 | inconclusive: 17.8 µM [inhibitor, partial curve, poor fit] | – |
| Cc1ccccc1-n1c(C)c(C#N)c(=O)c(-[n+]2ccccc2)c1[S-] | inconclusive: 2.99 µM [inhibitor, single point] | – |
| CCN(CC)CCn1c2c(c(SCC(=O)Nc3ccc4c(c3)OCO4)nc1=O)CCC2 | – | inactive: 1.59% |

| SMILES | Potency | activity change, negative = inhibition |
| --- | --- | --- |
| COc1ccc(OC)c2c(C)cc(N3CCCCCC3)nc12 | inconclusive: 20 µM [inhibitor, partial curve, poor fit] | – |
| CC1(Cc2ccccc2OC(F)(F)F)C(=O)Nc2cc(-c3ccccc3Cl)ccc21 (stereo unspecified) | inconclusive: 31.6 µM [inhibitor, single point] | – |
| COc1cc2nccc(Oc3ccc(NC(=O)Nc4ccc(F)cc4F)c(F)c3)c2cc1OC | inconclusive: 24.3 µM [inhibitor, partial curve] | – |
| O=C(NCc1ccccc1)C1=C[C@@H](c2csc3ccccc23)C[C@@H](OCc2ccc(CO)cc2)O1 | inconclusive: 8.91 µM [inhibitor, full curve] | – |
| Cc1ccccc1N1CC(c2nc3ccccc3n2Cc2ccc(Br)cc2)CC1=O (stereo unspecified) | inconclusive: 35.5 µM [inhibitor, single point] | – |
| O=C(CCCN1C(=O)/C(=C/c2ccccc2Cl)SC1=S)NNC(=O)c1ccccc1 | inconclusive: 31.6 µM [inhibitor, single point] | – |
| COc1ccc(-c2cc(NC=O)c3ncc(-c4ccc(C(C)=O)cc4)n3c2)cn1 | – | inactive: -20.8% |
| Cc1ccsc1-c1nc(CN(C)C(C2CC2)C2CC2)c(C)o1 | inconclusive: 10 µM [inhibitor, single point] | – |
| O=C(c1ccc2nc(-c3ccco3)c(-c3ccco3)nc2c1)N1CCN(c2ccccc2)CC1 | inconclusive: 39.8 µM [inhibitor, single point] | – |
| Cc1ccc(Nc2nc(N3CCOCC3)nc(N3CCOCC3)n2)cc1Cl | inconclusive: 3.98 µM [inhibitor, partial curve, poor fit] | – |
| CCc1ccc(NC(=O)C2CCCN(c3nnc(C)c4c(C)n(-c5ccccc5)nc34)C2)cc1 (stereo unspecified) | – | inactive: -7.83% |
| C/C=C1\COC(C(=O)NCCN2CCCC2)(C(F)(F)F)C=C1C=C1CCCCC1 (stereo unspecified) | inconclusive: 35.5 µM [inhibitor, single point] | – |
| O=C1/C(=C/c2ccccc2Cl)SC(=S)N1CCCC(=O)N(CCO)c1ccccc1 | inconclusive: 25.1 µM [inhibitor, partial curve, poor fit] | – |
| O=C(N/N=C/c1ccc(Br)cc1)c1ccccc1-n1cccc1 | inconclusive: 12.6 µM [inhibitor, partial curve, poor fit] | – |
| CCc1ccc(Sc2cc(C(=O)NCCCN3CCC(C)CC3)c3ccccc3n2)cc1 | inconclusive: 35.5 µM [inhibitor, single point] | – |
| N#Cc1c(C#N)c(SSc2c(C#N)c(C#N)c(N)n2-c2ccccc2)n(-c2ccccc2)c1N | inconclusive: 25.1 µM [inhibitor, partial curve] | – |
| Cc1ccccc1OCCn1cc(/C(N)=N/O)c2ccccc21 | – | inactive: -20.7% |
| Fc1ccc2cnc(-c3ccccc3)c(-c3cc(C(F)(F)F)cc(C(F)(F)F)c3)c2c1 | inconclusive: 39.8 µM [inhibitor, single point] | – |
| Cc1ccc(F)cc1-c1cc(C(=O)NCc2cc(C(F)(F)F)cc(C(F)(F)F)c2)[nH]n1 | inconclusive: 39.8 µM [inhibitor, single point] | – |
